Source: patent US20260241026A1, “THERAPEUTIC METHOD FOR LOW-DRUG-SENSITIVITY CANCERS BY ADMINISTRATION OF ANTI-MUC1 ANTIBODY-DRUG CONJUGATE” (priority 2023, published 2026)

Tests used:
[1] = tested on: bladder cancer PDX model (NIBIO-K071); assay: Antitumor test in bladder cancer patient-derived xenograft model NIBIO-K071; assay type: in vivo, female nude mice; conditions: for antitumor effect after sequential administration: observed about 3 weeks; for ETV (mm^3) Mean: Day 21, Q3W, intravenous
Text: NIBIO-[…] was obtained as a bladder cancer patient-derived xenograft model (PDX model) from the National Institute of Biomedical Innovation. A frozen tumor section of NIBIO-[…] was thawed and subcutaneously transplanted to 4- to 6-week old female NSG mice (NOD. Cg-Prkdc Il2rg<tm1Wjl>/SzJ: purchased from Charles River Laboratories Japan, Inc.) using a trocar. Grown tumor was collected, cut into small pieces, and transplanted again to female NSG mice or female nude mice (CAnN. Cg-Foxn1nu/CrlCrlj: purchased from Charles River Laboratories Japan, Inc.) using a trocar, followed by extended growth. TA-MUC1-, Nectin-4-, and TROP2-positive findings were confirmed in the tumor of this model by immunohistochemical staining (IHC). An estimated tumor volume (ETV) was calculated as described below. Estimated tumor volume (volume,mm^3)=Major axis (mm)×Minor axis (mm)^2/2 The female nude mice with transplanted NIBIO-[…] were grouped 25 days after transplantation when their average tumor volume became about 200 mm^3. […] ABS buffer was administered to a Vehicle administration group. Six mice per group were used in all the groups. After initial administration, body weights and tumor sizes were measured twice a week, and estimated tumor volumes were calculated.

[2] = tested on: human breast cancer cell line HCC70; assay: Antitumor test in model with transplanted breast cancer cell line HCC70 (Example 3); assay type: in vivo, female nude mouse
Description: The mice were grouped 18 days after transplantation when their average tumor volume became about 165 mm^3. […] ABS buffer was administered to a Vehicle administration group. Six mice per group were used in all the groups.

[3] = tested on: lung cancer PDX model (NIBIO-NS1); assay: Antitumor test in lung cancer patient-derived xenograft model NIBIO-NS1; assay type: in vivo, female nude mice
Text: NIBIO-NS1 was obtained as a lung cancer PDX model from the National Institute of Biomedical Innovation. A frozen tumor section of NIBIO-NS1 was thawed and subcutaneously transplanted to 5-week old female NSG mice (NOD. Cg-Prkdc Il2rg<tm1Wjl>/SzJ: purchased from Jackson Laboratory Japan, Inc.) using a trocar. Grown tumor was collected, cut into small pieces, and transplanted again to female nude mice (CAnN. Cg-Foxn1nu/CrlCrlj: purchased from Jackson Laboratory Japan, Inc.) using a trocar, followed by extended growth.
The female nude mice with transplanted NIBIO-NS1 were grouped 10 days after transplantation when their average tumor volume became about 157 mm^3. […] Six mice per group were used in groups 1 and 2, and 12 mice were used in group 3.

[4] = tested on: human breast cancer cell line HCC70; assay: Antitumor test in model with transplanted breast cancer cell line HCC70 (Example 5)
Description: A human breast cancer cell line HCC70 was purchased from ATCC and reconstituted using RPMI 1640 medium (manufactured by Thermo Fisher Scientific Inc.) containing 10% fetal bovine serum. Then, the cells were cultured in an incubator set to 37° C. and 5% CO2, and passaged at a frequency of once to twice a week. […] The suspension was subcutaneously transplanted at 100 μL to each 5-week-old female nude mouse (1×10^7 cells/100 μL/head). The mice were grouped 21 days after transplantation when the average tumor volume in the mice with the transplant became about 198 mm^3.
Six mice per group were used in groups 1, 2, and 3, and 12 mice was used in group 4. Body weights and tumor sizes were measured once to twice a week, and estimated tumor volumes were calculated. The comparison of drug efficacy between agents was analyzed by the parametric Dunnett's multiple comparison.
TA-MUC1-DXd ADC was sequentially administered at 10 mg/kg (Q3W×3) to one of the groups, and evaluation and observation were carried out up to Day 84.

B1: TA-MUC1-DXd ADC: anti-TA-MUC1 antibody PM-N54Q (SEQ ID NO: 11, 12) conjugated to the exatecan-derivative drug-linker via a thioether bond; average 7 to 8 drugs per antibody (conjugate)
heavy: EVQLVESGGGLVQPGGSMRLSCVASGFPFSNYWMNWVRQAPGKGLEWVGEIRLKSNQYTTHYAESVKGRFTISRDDSKNSLYLQMNSLKTEDTAVYYCTRHYYFDYWGQGTLVTVSS[not shown - human IgG1 constant region]
light: DIVMTQSPLSNPVTPGEPASISCRSSKSLLHSNGITYFFWYLQKPGQSPQLLIYQMSNLASGVPDRFSGSGSGTDFTLRISRVEAEDVGVYYCAQNLELPPTFGQGTKVEIKRTVAAPSVFIFPPSDEQLKSGTASVVCLLNNFYPREAKVQWKVDNALQSGNSQESVTEQDSKDSTYSLSSTLTLSKADYEKHKVYACEVTHQGLSSPVTKSFNRGEC
modifications: exatecan-derivative drug-linker, DAR 7-8; Heavy chain of PM-N54Q; Light chain of PM-N54Q/PankoMab-GEX
notes: average 7 to 8 drugs per antibody
- body weight on sequential administration ([1]; 10 mg/kg after Nectin-4-MMAE ADC or TROP2-SN38 ADC, NIBIO-K071): No reduction in body weight
- antitumor effect after sequential administration ([1]; 10 mg/kg on Day 21 to the Nectin-4-MMAE ADC administration group): strong regression effect
- antitumor effect after sequential administration ([1]; 10 mg/kg on Day 28 to the TROP2-SN38 ADC administration group): strong regression effect
- ETV (mm^3) Mean ([1]; 3 mg/kg, NIBIO-K071): 34 mm^3
- ETV (mm^3) Mean ([1]; 10 mg/kg, NIBIO-K071): 6 mm^3
- body weight on sequential administration ([2]; 10 mg/kg after TROP2-SN38 ADC, HCC70): No reduction in body weight
- antitumor effect after sequential administration ([2]; 10 mg/kg on Days 21 and 42 to the TROP2-SN38 ADC administration group, up to Day 65): strong regression effect
- antitumor effect ([2]; Day 21, 10 mg/kg Q3W, HCC70): strong regression effect
- ETV (mm^3) Mean ([2]; Day 21, 10 mg/kg, Q3W, intravenous, HCC70): 19 mm^3
- body weight on sequential administration ([3]; 10 mg/kg after TROP2-DXd ADC, NIBIO-NS1): No reduction in body weight
- tumor course after regrouping of the TROP2-DXd ADC administration group ([3]; 10 mg/kg on Day 11 to tumors pre-treated with TROP2-DXd ADC, up to Day 31 (TA-MUC1-DXd ADC) or Day 21 (TROP2-DXd ADC)): strong tumor regression effect
- tumor regression effect ([3]; Day 11, 10 mg/kg on Day 0, NIBIO-NS1): strong regression effect
- ETV (mm^3) Mean ([3]; Day 11, 10 mg/kg, Day 0, intravenous, NIBIO-NS1): 51 mm^3
- body weight on sequential administration ([4]; 10 mg/kg (Q3W×3) after HER2-DXd ADC, HCC70): No reduction in body weight
- tumor course after regrouping of the HER2-DXd ADC administration group ([4]; 10 mg/kg from Day 21 to tumors pre-treated with HER2-DXd ADC, TA-MUC1-DXd ADC Q3W×3 up to Day 84, HER2-DXd ADC up to Day 42): strong tumor regression effect
- ETV (mm^3) Mean ([4]; Day 21, 10 mg/kg, intravenous, HCC70): 43 mm^3
- tumor regression effect ([4]; Day 21, 10 mg/kg, HCC70): strong regression effect
